Data on 153 variants can be found in a collection of fitness landscapes (doi:10.1126/science.1257360).

The other results are listed elsewhere or left out. Bounds are passed on as bounds.

B1: PhoQ; a variant is named by its letters at X, in order, P23837 (parent)
chain: MKKLLRLFFPLSLRVRFLLATAAVVLVLSLAYGMVALIGYSVSFDKTTFRLLRGESNLFYTLAKWENNKLHVELPENIDKQSPTMTLIYDENGQLLWAQRDVPWLMKMIQPDWLKSNGFHEIEADVNDTSLLLSGDHSIQQQLQEVREDDDDAEMTHSVAVNVYPATSRMPKLTIVVVDTIPVELKSSYMVWSWFIYVLSANLLLVIPLLWVAAWWSLRPIEALAKEVRELEEHNRELLNPATTRELTSLVRNLNRLLKSERERYDKYRTTLTDLTHSLKTPLXXLQXXLRSLRSEKMSVSDAEPVMLEQISRISQQIGYYLHRASMRGGTLLSRELHPVAPLLDNLTSALNKVYQRKGVNISLDISPEISFVGEQNDFVEVMGNVLDNACKYCLEFVEISARQTDEHLYIVVEDDGPGIPLSKREVIFDRGQRVDTLRPGQGVGLAVAREITEQYEGKIVAGESMLGGARMEVIFGRQHSAPKDE

The variants in the assay derive from B1. The experiment in a line: enrichment ratio after two sorts for PhoP signalling (ratio (wild type AVST 3.29)); higher = more functional. As to conditions: with PhoP (E. coli).
In the case of KIFE, the enrichment ratio is at most 0.25.

In the case of DTYW, the enrichment ratio is at most 0.25. Next, ASFG: 1.66; IKFE: at most 0.25; VYQC: at most 0.25. IFTS: the enrichment ratio is at most 0.25. In the case of VWYE, the enrichment ratio was at most 0.25.

Regarding GMNN, the enrichment ratio is at most 0.25. Next, PTCP: at most 0.25. In the case of YAIC, the enrichment ratio was at most 0.25. Under YQKF stands at most 0.25; under LTSS, at most 0.25; under MILC, 6.27. With GQTP, the enrichment ratio was at most 0.25. For the variant YPHW, the enrichment ratio was at most 0.25. Under MRAQ stands at most 0.25. In the case of EFFQ, the enrichment ratio was at most 0.25. For GDHK, the enrichment ratio is at most 0.25. Next, RPMT: at most 0.25; VDHC: at most 0.25. Turning to MGEM, the enrichment ratio was at most 0.25. Under RHFF stands at most 0.25; under SKCM, 11. Next, GQCI: 2.43; PMFK: at most 0.25.

For the variant WEHG, the enrichment ratio was at most 0.25. For the variant RHGG, the enrichment ratio is at most 0.25. Under NTLI stands at most 0.25. Consider QIRT, for which the enrichment ratio is at most 0.25. Under IRDQ stands at most 0.25. Take HWSA: the enrichment ratio is at most 0.25.

For the variant DSPM, the enrichment ratio is at most 0.25.

IRKS: the enrichment ratio was at most 0.25. Take ASWC: the enrichment ratio is at most 0.25.

Consider PCMV, for which the enrichment ratio was at most 0.25. Take QEKW: the enrichment ratio is at most 0.25. Under IVMR stands at most 0.25; under TMYD, at most 0.25. Next, LTEH: at most 0.25; KSPR: at most 0.25. With GHYS, the enrichment ratio is at most 0.25. Next, HKSN: at most 0.25. Under GYVH stands at most 0.25. Next, MCCS: at most 0.25; PDCV: at most 0.25; QTYM: 0.346. Consider WYMR, for which the enrichment ratio is at most 0.25.

With WPNC, the enrichment ratio is at most 0.25.

RSRK: the enrichment ratio is at most 0.25. Under PVQN stands at most 0.25; under FYLH, at most 0.25. Under IMRD stands at most 0.25; under IMKL, at most 0.25; under CLST, 5.26.

As to SQYR, the enrichment ratio was at most 0.25. Next, HVER: at most 0.25; SFGT: at most 0.25; KKHI: at most 0.25.

Consider KSIR, for which the enrichment ratio is at most 0.25.

Regarding GLVL, the enrichment ratio worked out at 5.57. Under YMLA stands at most 0.25. Consider VNPI, for which the enrichment ratio is at most 0.25. Under WAKP stands at most 0.25; under MQER, at most 0.25; under QEQC, at most 0.25. As to DLFS, the enrichment ratio is at most 0.25.

As for VICE, the enrichment ratio was at most 0.25.

HEHA: the enrichment ratio was at most 0.25.

Take KITK: the enrichment ratio was at most 0.25.

On to SINI, for which the enrichment ratio worked out at 1.72. With RVTL, the enrichment ratio was at most 0.25. Regarding IWKD, the enrichment ratio was at most 0.25.

Consider YSVG, for which the enrichment ratio was at most 0.25. Regarding GPWM, the enrichment ratio is at most 0.25. Take DDVL: the enrichment ratio came to 0.658.

Consider DCIR, for which the enrichment ratio was at most 0.25.

Consider EQFT, for which the enrichment ratio is at most 0.25. Turning to VMRK, the enrichment ratio is at most 0.25. Under TCLA stands 11.9; under HSDV, at most 0.25; under LQPY, at most 0.25.

As for MNWM, the enrichment ratio worked out at 4.81. Under MCKE stands at most 0.25. Under RNTD stands at most 0.25; under SDQI, at most 0.25; under GIKA, at most 0.25.

Take MHFW: the enrichment ratio is at most 0.25. Next, FDEQ: at most 0.25; KQFK: at most 0.25; IQVL: at most 0.25. Under RKFI stands at most 0.25. As to YYFE, the enrichment ratio was at most 0.25. As to EHSL, the enrichment ratio was at most 0.25. For the variant MAWK, the enrichment ratio is at most 0.25.

Take HHGE: the enrichment ratio was at most 0.25. For AMCK, the enrichment ratio is at most 0.25. Under HTSN stands at most 0.25; under PDRY, at most 0.25; under WYDR, at most 0.25. With ATWR, the enrichment ratio is at most 0.25. Turning to PMFH, the enrichment ratio was at most 0.25. Under FAKQ stands at most 0.25. Next, SSTI: 13.8. Under SPIN stands at most 0.25; under TVSW, 7.67. As to PPIN, the enrichment ratio was at most 0.25. With RCGE, the enrichment ratio is at most 0.25. Next, SMFC: at most 0.25; GDLS: at most 0.25; DHFN: at most 0.25. For the variant NHGC, the enrichment ratio is at most 0.25. Turning to GWAG, the enrichment ratio was at most 0.25. Under NLDF stands at most 0.25; under VGEV, at most 0.25; under FFGI, at most 0.25. As for MKKC, the enrichment ratio is at most 0.25. Under IFCW stands at most 0.25; under ECFG, at most 0.25. Under LYYD stands at most 0.25; under RKQL, at most 0.25. Under PHRI stands at most 0.25; under KMAG, at most 0.25.

Turning to LTFY, the enrichment ratio is at most 0.25. Under SIYS stands 0.277; under MNHQ, at most 0.25; under RDLF, at most 0.25. With SHHF, the enrichment ratio was at most 0.25. Consider AKPY, for which the enrichment ratio was at most 0.25. Next, TPEN: at most 0.25; HLQS: at most 0.25. As to WQRF, the enrichment ratio was at most 0.25. Next, QFCM: at most 0.25; YVNC: at most 0.25.

In the case of LPFL, the enrichment ratio was at most 0.25. Under AINM stands at most 0.25. Under DCAK stands at most 0.25; under RMPT, at most 0.25; under PLAG, 0.499. For PHLC, the enrichment ratio was at most 0.25. Under ENYF stands at most 0.25; under NQDF, at most 0.25. Take HELS: the enrichment ratio was 0.936.

Regarding DQGP, the enrichment ratio is at most 0.25. Under SSIT stands 6.16. Next, STDD: at most 0.25; YPDW: at most 0.25; WQLM: 15.8. Consider YSRN, for which the enrichment ratio is at most 0.25. As for KDVQ, the enrichment ratio is at most 0.25. Under HRWF stands at most 0.25. Next, AVQM: at most 0.25. Consider VMAD, for which the enrichment ratio is at most 0.25.

On to PAKT, for which the enrichment ratio was at most 0.25.
